From the supplement of paper PMC12217912
This is one part of the list. Sequences were assembled here from the parent chain. Inactive controls read about 0.05.

B1: TEV protease; numbered along this chain (parent)
chain: MGESLFKGPRDYNPISSSICHLTNESDGHTTSLYGIGFGPFIITNKHLFRRNNGTLVVQSLHGVFKVKDTTTLQQHLVDGRDMIIIRMPKDFPPFPQKLKFREPQREERICLVTTNFQTKSMSSMVSDTSCTFPSGDGIFWKHWIQTKDGQCGSPLVSTRDGFIVGIHSASNFTNTNNYFTSVPKNFMELLTNQEAQQWVSGWRLNADSVLWGGHKVFMVKPEEPFQPVKEATQL

Variants of: B1
Assay: raw area under fraction-flipped curve 0-4 h after induction (AUC4h, not background-subtracted), DNA-recorder readout of cleavage of the substrate (dimensionless); higher = more cleavage of the substrate by the protease variant
Settings: temperature: 34 °C; time window: 0-4 h after rhamnose induction
Description: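 In vivo DNA recorder in E. coli TOP10(DE3) ΔrhaA at 34 °C. Each TEVp single-site mutant (parent TEVp 0) is paired with a single-site variant of the 7-mer TEVs (canonical ENLYFQ|S). The substrate sits between flexible linkers in a Bxb1-sfGFP-TEVs-SsrA fusion, so cleavage stabilises Bxb1 and speeds flipping of a recombination array, read by NGS. The value is the raw area under the fraction-flipped curve over 0-4 h after rhamnose induction (AUC4h), with ≥20 reads per time point. It is not background-subtracted; inactive controls average about 0.047.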
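Also: Bxb1 expression induced with 0.2% (w/v) L-rhamnose at OD600 near 0.5, cultures sampled hourly, flipped fraction per protease–substrate barcode pair counted by paired-end Illumina sequencing.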

Variant | area with substrate ENCYFQS | area with substrate ENDYFQS | area with substrate ENEYFQS | area with substrate ENFYFQS | area with substrate ENKYFQS | area with substrate ENNYFQS | area with substrate ENPYFQS | area with substrate ENSYFQS | area with substrate ENVYFQS | area with substrate ENGYFQS | area with substrate ENRYFQS | area with substrate ENWYFQS | area with substrate ENIYFQS | area with substrate ENQYFQS | area with substrate ENTYFQS | area with substrate ENYYFQS | area with substrate ENHYFQS | area with substrate ENMYFQS
I164T | 0.0377 | 0.0568 | 0.0616 | 0.0607 | 0.0661 | 0.0566 | 0.0619 | 0.0566 | 0.0578 | – | – | – | – | – | – | – | – | –
R102D | – | 0.0599 | – | – | – | 0.0532 | 0.0501 | 0.0529 | 0.0501 | 0.038 | 0.0552 | 0.0437 | – | – | – | – | – | –
K221D | 0.0668 | 0.0595 | 0.0685 | 0.0601 | – | 0.0529 | 0.0053 | 0.064 | 0.0566 | 0.0573 | 0.0656 | 0.0501 | 0.0777 | 0.0584 | 0.0567 | 0.0524 | – | –
G80R | – | 0.0749 | 0.0726 | – | – | 0.0563 | – | 0.0642 | – | – | – | 0.0473 | 0.0634 | – | – | – | 0.0499 | 0.0688
Q227T | 0.0539 | 0.0508 | 0.0653 | – | 0.0672 | – | 0.0613 | – | – | – | 0.0629 | – | 0.121 | – | – | – | – | –
F133Q | 0.0642 | 0.0568 | – | – | 0.0552 | 0.061 | – | 0.0633 | 0.0846 | – | – | – | – | 0.0568 | – | 0.0576 | 0.0797 | –
I85D | 0.0459 | – | 0.0397 | – | – | – | – | – | – | – | 0.045 | – | – | 0.0538 | – | – | 0.0444 | 0.0243
P155Y | 0.07 | – | 0.0559 | – | 0.0511 | 0.0551 | – | 0.057 | 0.0502 | – | 0.0559 | – | 0.045 | 0.0574 | 0.0512 | – | – | –
G202L | 0.0647 | 0.0584 | 0.0442 | – | – | – | – | 0.0677 | 0.0645 | – | 0.0692 | – | 0.0579 | – | 0.0821 | 0.0683 | 0.0553 | –
F65T | 0.0629 | 0.0583 | 0.05 | – | 0.054 | 0.0606 | 0.0276 | 0.0412 | 0.0783 | 0.0597 | 0.0592 | – | 0.0961 | 0.0508 | – | 0.0485 | – | 0.0797
F180P | 0.0532 | 0.0407 | – | – | – | 0.0334 | – | 0.0506 | 0.0759 | 0.0688 | 0.063 | 0.0486 | – | 0.051 | – | – | 0.0548 | 0.0468
Q118S | 0.0726 | 0.0589 | 0.0655 | 0.0608 | – | 0.0722 | – | 0.066 | 0.0671 | 0.0649 | 0.0723 | 0.0128 | – | 0.0622 | – | 0.066 | – | –
T70A | 0.0743 | 0.0527 | 0.0766 | – | – | – | 0.0647 | 0.0565 | – | 0.0079 | – | – | 0.0967 | 0.0612 | – | 0.0805 | – | 0.0709
P9V | – | 0.0541 | – | 0.0536 | – | 0.0578 | – | 0.0597 | 0.0618 | – | 0.0591 | 0.0517 | 0.0781 | 0.0596 | – | – | 0.0603 | 0.0793
P9M | 0.0773 | 0.0593 | – | 0.0243 | – | – | 0.0642 | 0.043 | 0.0934 | – | – | – | – | 0.0756 | 0.0717 | – | – | 0.0752
H76I | 0.0659 | 0.0562 | – | 0.0629 | – | – | – | – | – | 0.0472 | – | 0.0606 | – | 0.0717 | – | – | 0.0567 | 0.067

Variant | area with substrate ENCYFQS | area with substrate ENDYFQS | area with substrate ENEYFQS | area with substrate ENFYFQS | area with substrate ENKYFQS | area with substrate ENNYFQS | area with substrate ENPYFQS | area with substrate ENSYFQS | area with substrate ENVYFQS | area with substrate ENGYFQS | area with substrate ENRYFQS | area with substrate ENWYFQS | area with substrate ENIYFQS | area with substrate ENQYFQS | area with substrate ENTYFQS | area with substrate ENYYFQS | area with substrate ENHYFQS | area with substrate ENMYFQS
L156I | 0.0672 | 0.0615 | 0.068 | 0.0566 | 0.0681 | 0.0355 | – | 0.0585 | 0.0576 | 0.0635 | 0.0619 | 0.066 | 0.102 | 0.0419 | 0.0625 | – | 0.0501 | 0.0891
L61D | 0.0692 | 0.0619 | 0.0684 | 0.0602 | 0.0632 | – | – | 0.0702 | 0.0782 | – | 0.0665 | 0.0571 | 0.1 | 0.0585 | 0.0457 | 0.078 | 0.0799 | 0.0952
I139F | 0.076 | – | 0.0627 | – | 0.0848 | 0.0759 | – | 0.0613 | 0.0976 | 0.056 | 0.0598 | – | 0.128 | 0.058 | – | 0.0412 | – | 0.112
I139M | 0.0557 | 0.0683 | 0.0457 | 0.0411 | – | 0.048 | 0.0665 | 0.0609 | 0.0813 | 0.0644 | 0.0677 | – | – | 0.0593 | 0.0505 | – | 0.0496 | 0.0701
T44Y | – | 0.0481 | 0.0482 | 0.0487 | – | 0.0505 | – | 0.0447 | 0.0391 | – | 0.0476 | – | 0.0484 | – | 0.04 | 0.0636 | – | 0.0444
S26G | – | 0.0578 | 0.0625 | 0.0619 | – | – | – | 0.0534 | 0.0717 | – | – | 0.0415 | – | 0.0488 | – | 0.0818 | 0.0564 | –
S26T | 0.0628 | 0.0636 | 0.0501 | – | 0.0607 | 0.0612 | 0.0537 | 0.0547 | 0.065 | 0.0633 | 0.0548 | – | 0.103 | 0.062 | 0.0602 | 0.0305 | 0.0547 | 0.0689
S26A | 0.0736 | 0.0641 | 0.0615 | 0.0537 | 0.07 | 0.067 | 0.0679 | 0.0527 | 0.0728 | 0.063 | 0.0282 | 0.0471 | – | 0.0533 | 0.0665 | 0.0594 | 0.0899 | 0.0803
C131S | – | 0.0564 | 0.0699 | – | – | – | – | – | 0.0854 | – | – | – | 0.0853 | 0.0736 | 0.0714 | – | – | –
D137K | 0.0612 | 0.057 | 0.0578 | – | 0.0669 | – | – | 0.0717 | 0.0785 | – | – | – | – | 0.0601 | – | – | – | 0.0838
L205E | – | 0.0621 | 0.0676 | – | – | – | 0.0569 | 0.0595 | 0.0687 | – | – | – | – | 0.0573 | 0.0773 | – | – | –
V113T | – | 0.0773 | 0.0499 | 0.0411 | 0.0641 | – | 0.0451 | 0.0588 | 0.045 | 0.0592 | 0.0558 | – | – | 0.0658 | – | 0.0531 | 0.0533 | –
D69I | 0.0673 | – | – | – | – | – | 0.0511 | – | – | – | – | 0.0042 | 0.0739 | 0.0439 | – | 0.0596 | 0.0606 | –
D69C | 0.0623 | – | 0.0861 | 0.0603 | 0.0471 | 0.0613 | – | 0.115 | 0.0735 | 0.0838 | 0.0546 | – | 0.0973 | 0.0612 | 0.0282 | 0.0608 | – | 0.0767
S130C | 0.064 | – | – | 0.0692 | – | 0.0464 | – | 0.0467 | – | – | – | – | – | 0.0591 | 0.0799 | – | – | –
S130G | 0.0566 | 0.0588 | 0.0516 | – | – | – | 0.0656 | 0.0554 | 0.0922 | – | 0.0668 | 0.0515 | 0.115 | 0.0507 | – | 0.0656 | 0.0707 | –
